# In the supplement of paper PMC3334620:
# In all, about 33,000 sequences were measured (“E-score (-0.5 to 0.5)”: median about -0.012, highest 2% from about 0.29 on). The list shows a part of the results.
# Target: T1, Ybr033w (UniProt P38073)
# T1 sequence: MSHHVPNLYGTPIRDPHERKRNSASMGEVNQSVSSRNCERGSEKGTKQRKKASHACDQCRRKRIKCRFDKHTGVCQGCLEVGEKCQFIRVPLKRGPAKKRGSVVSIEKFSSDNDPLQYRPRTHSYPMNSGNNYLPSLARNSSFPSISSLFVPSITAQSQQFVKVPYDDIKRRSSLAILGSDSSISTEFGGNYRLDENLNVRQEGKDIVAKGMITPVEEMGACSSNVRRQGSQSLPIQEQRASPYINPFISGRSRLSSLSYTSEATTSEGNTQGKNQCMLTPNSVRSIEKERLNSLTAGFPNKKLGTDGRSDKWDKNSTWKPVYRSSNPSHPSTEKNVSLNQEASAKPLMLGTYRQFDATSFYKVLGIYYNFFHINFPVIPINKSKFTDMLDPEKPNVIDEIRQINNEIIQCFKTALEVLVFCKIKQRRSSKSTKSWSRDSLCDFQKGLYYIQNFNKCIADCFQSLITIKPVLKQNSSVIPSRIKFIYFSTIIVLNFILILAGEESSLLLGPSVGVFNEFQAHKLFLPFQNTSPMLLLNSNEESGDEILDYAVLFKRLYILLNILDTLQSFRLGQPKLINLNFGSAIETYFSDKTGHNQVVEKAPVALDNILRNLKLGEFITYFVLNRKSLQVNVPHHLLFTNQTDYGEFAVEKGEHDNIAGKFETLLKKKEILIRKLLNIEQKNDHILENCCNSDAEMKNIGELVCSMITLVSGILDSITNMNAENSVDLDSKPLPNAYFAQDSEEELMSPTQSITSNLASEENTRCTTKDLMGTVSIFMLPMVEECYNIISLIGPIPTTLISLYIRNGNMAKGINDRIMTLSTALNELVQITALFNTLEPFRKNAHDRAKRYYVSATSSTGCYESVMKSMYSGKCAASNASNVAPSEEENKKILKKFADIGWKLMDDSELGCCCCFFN
# Experiment: PBM E-score (8-mer binding enrichment) (E-score (-0.5 to 0.5)); higher = stronger / more preferred TF binding; most listed sequences are background and not binding sites
# Details: protein concentration: 200 nM; construct: GST-full length
# Procedure, shortened: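 E-scores (a modified Wilcoxon-Mann-Whitney statistic) were assigned by the Universal PBM Analysis Suite to every ungapped eight-base word pooled with its reverse complement. The input came from universal all-10-mer Agilent arrays made double-stranded by primer extension and probed with GST-tagged yeast transcription factors at about 100-200 nM. Fluorescent anti-GST detected bound protein, and masliner normalised the scans.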
row,Sequence,PBM E-score
1,TCCCGCCA,-0.0875
2,CTATTTAC,0.176
3,AATCACGC,0.0416
4,ATTGGGCG,-0.0632
5,GAGCTGAA,-0.0998
6,ATATATTG,0.14
7,TTCTCAAA,0.225
8,CCAGTTTC,0.0234
9,CACCCAGG,-0.289
10,TCCAAGAA,0.105
11,AAGCTAAG,-0.123
12,CCACGGAG,-0.062
13,CAAACTTA,0.191
14,ATTTTGGG,-0.0622
15,CACATACA,0.122
16,GCTCTGCA,-0.174
17,AAGCTTAA,0.0186
18,CACCACGG,-0.277
19,GGTCGTCA,-0.0863
20,AACTACCA,0.189
21,CTAAACCC,-0.133
22,GGTCTCAA,-0.141
23,ATTATTAG,0.152
24,CCCAACAA,0.0356
25,CGACACAG,-0.103

row,Sequence,PBM E-score
1,AGCATGCT,-0.0521
2,CCTAAACC,-0.135
3,CTAGATCC,-0.143
4,ACGGTGAA,0.189
5,GTCGTCAC,-0.0476
6,GCCTGTGA,-0.251
7,AGCACTTA,-0.0291
8,ATTAGGTC,0.201
9,GAATTAAA,0.149
10,ACCGCCGG,-0.117
11,GTTGTTCA,0.0634
12,TAGTACTA,0.0809
13,CTACGTTA,-0.0152
14,CACCTCGG,-0.159
15,TACATGAA,0.104
16,GGAACTCC,-0.154
17,ACTGGACT,-0.126
18,GTATCCTA,-0.038
19,GACATAAA,0.0826
20,GTCCTGTA,0.0689
21,AGGACATA,-0.00127
22,CACAGACG,-0.12
23,GTAAATAA,0.279
24,TAGTTTCA,0.247
25,GACAGTCA,-0.16

row,Sequence,PBM E-score
1,AGTAGCTC,-0.0251
2,ATATGCCG,0.0394
3,AGCGATTG,-0.0938
4,ACTGAGAG,-0.126
5,GAGAAGAA,-0.0376
6,TGCCAGAA,-0.112
7,ACGGTACG,-0.0478
8,TACTTGCA,0.106
9,GCCCGTCC,-0.3
10,ACTTCTAA,-0.0604
11,GTGGCATA,-0.0451
12,AGGTTCTG,-0.0768
13,AGTCGAAA,0.0724
14,CCTACATA,-0.0758
15,GGGTCTGA,-0.111
16,CATTTTGG,-0.0616
17,GATACACA,0.0863
18,AGAAATAG,0.227
19,CTAAATCA,0.206
20,GTACCCGA,-0.222
21,CTCTCCGA,-0.0897
22,ACACTGCT,-0.12
23,ACGGAGCG,-0.107
24,AACAGAAT,0.179
25,GTATTCAA,0.205

row,Sequence,PBM E-score
1,CTTCTAGA,0.0265
2,ACCGTCCC,-0.184
3,GAAAGAGA,-0.0161
4,AACTTCCG,0.168
5,ATCCGCTG,-0.0808
6,ATGCAGTA,0.156
7,ACTTTAAT,0.114
8,AACGTTCG,-0.0562
9,CGTCCCGC,-0.183
10,ACTCGTGA,-0.0972
11,AAGCTTTG,-0.00097
12,AAGATAGC,-0.0304
13,TCAGGTCA,-0.0657
14,ATGTGAGC,-0.189
15,CTCGGCAG,-0.0126
16,AAGTGCGT,0.0329
17,CCGGGTGA,-0.00109
18,GCATAAAA,0.176
19,AAGCACCT,-0.0785
20,ATATTGGC,-0.0342
21,CACCTGCG,0.0425
22,GGTGTTGA,-0.214
23,AAGCCCAG,-0.0433
24,ATAGCCTG,-0.0998
25,AAGGCAAT,0.115

row,Sequence,PBM E-score
1,GACTGCAA,-0.213
2,ACACATCC,0.0039
3,ACATAGAC,-0.0428
4,CGCCCCGC,-0.215
5,TCCAATAA,0.201
6,AACGTACT,0.133
7,ATACTGGA,0.211
8,AGCACCGA,0.0778
9,AAAGTGCT,0.173
10,AAAAGGCA,0.233
11,CAACCACA,0.0032
12,AAAGGATT,0.0765
13,CTGACAAA,0.203
14,CCTGATTC,0.0636
15,ATTAAGAC,0.159
16,CGCATAAA,0.297
17,ATATCACG,-0.00718
18,GCACTCAA,-0.151
19,ACCCCGGA,-0.0459
20,TGTACACA,0.112
21,ATACCGTG,-0.0804
22,CAATCCCG,0.0381
23,GAAGCACA,0.123
24,GCACGTGA,-0.207
25,AACTTAAC,0.265

row,Sequence,PBM E-score
1,ATTTCTAC,-0.0311
2,ACTACTTG,0.0703
3,CCCCGGGG,-0.398
4,AAGAATCA,0.224
5,CATTAACG,0.0841
6,GGTTGAAC,-0.0228
7,ACCTGGGC,-0.362
8,ATCCGCTA,0.0632
9,CATTCAGA,0.0377
10,ACACATGT,0.0925
11,GCGTGTCC,-0.115
12,AACTGTGG,0.118
13,ATTATCGC,0.319
14,CCAATTCC,0.0727
15,AGGGTATG,0.0472
16,ATGGACAA,0.164
17,AGGCAGGC,-0.244
18,AGAAAGGA,0.0496
19,ATTTAACA,0.183
20,ACCAGAAC,0.0756
21,AATCAAAT,0.175
22,ATACTCAT,0.0796
23,GAGAGGAA,0.00832
24,CGCGTCAG,-0.205
25,ACCGGGGA,-0.176

row,Sequence,PBM E-score
1,ACGTTTGG,-0.0501
2,ACACTGCA,-0.203
3,TGAGATCA,0.0986
4,AAGACGAC,0.0588
5,AGCCAACC,0.027
6,CTTCTTCC,0.0741
7,CTAGAGTC,-0.172
8,CGAGTGCG,0.0474
9,AGAGACTC,0.0372
10,CTAAAGCA,0.0926
11,AAGGCATC,-0.0488
12,GTGTAAAC,-0.00524
13,ATCAGGTG,-0.135
14,ATGTATCG,0.175
15,TAGAACGA,0.134
16,ACTCCGCC,-0.0727
17,ACTCACCC,-0.175
18,ACGACAGG,-0.133
19,AATATGTA,0.249
20,AGGTTCGC,-0.203
21,TGAACGAA,-0.0416
22,CAAGTGAA,0.0901
23,ATACACCC,0.125
24,CATCCCTC,-0.114
25,ATCATTGG,0.156

row,Sequence,PBM E-score
1,GGAGTCCA,-0.162
2,TAATTAAA,0.276
3,TAAATGCA,0.132
4,TAATCGCA,0.209
5,AGTCAGAG,-0.172
6,AGCGTTGC,-0.0711
7,AAGAGAAG,0.0159
8,AGTGTTGC,0.0949
9,CAACGGCG,-0.16
10,CGGCAAAC,0.0411
11,ACATCGCT,-0.101
12,GGACTGTA,-0.21
13,ACTCGGGG,-0.203
14,AGGTTCCA,-0.0608
15,AGGCAGAT,0.0307
16,CCTCCAGA,-0.116
17,AATGCGGT,-0.0179
18,GGACCACA,-0.00774
19,CGTTTTAG,-0.00628
20,ACGAAGTA,0.124
21,GCTCAGGA,0.0718
22,AAAGTGTT,0.119
23,AGTCCGCC,-0.112
24,CACGTACA,-0.0136
25,ATAGTAAG,0.142

row,Sequence,PBM E-score
1,GACTTCGA,-0.0795
2,CAGCTTCG,0.0788
3,GCGAGTTA,-0.0299
4,GATTTAGA,0.221
5,CGCAACCG,-0.145
6,AAGCGTAC,-0.226
7,AATCTATA,0.297
8,ATAGGATG,0.149
9,AGCGAGGC,-0.225
10,CGGGGTGA,0.0413
11,ACTGTGCA,0.031
12,TGAGGCCA,-0.143
13,CCTTTTTA,0.161
14,CGAGGTTA,0.0654
15,CGTAAATC,-0.103
16,CATTGGAC,-0.141
17,AGCCTACG,0.00613
18,AAGCTTAC,0.0655
19,TCGGTGAA,-0.0318
